Laboratory results: ChEMBL document CHEMBL4888484, “Replenishing the malaria drug discovery pipeline: Screening and hit evaluation of the MMV Hit Generation Library 1 (HGL1) against asexual blood stage Plasmodium falciparum ,using a nano luciferase reporter read-out” (2022)
The campaign covered roughly 150,000 compounds. About 540 (0.36%) showed an effect of 50% or more. The list shows a part of the results.

system: Plasmodium falciparum; assay: Primary screen in NF54 nanoGlo assay, in single point, at 2uM, 72h; a lower Z score goes with more inhibition; format: functional, Erythrocyte; conditions: timepoint 72 hour

**Q.** What does the source list for `c1cc(CN(CCN2CCCCC2)C[C@H]2CCCN(C3CCCC3)C2)c2nonc2c1`?
**A.** % Inhibition: -9%; Z score: 1.13

**Q.** How did the “% Inhibition” value turn out when `CCOc1ccnc(N2CC[C@H](C(=O)NC)C2)n1` was run?
**A.** -7%

**Q.** And the Z score?
**A.** 1.26

**Q.** For `Oc1ccc(N2CCN(c3cc(N4CCCC4)ncn3)CC2)cc1`, which “% Inhibition” value is on record?
**A.** -13%

**Q.** What about the Z score of the same compound?
**A.** 1.27

**Q.** Which “% Inhibition” value does the source give for `CC1(C)C[C@@H]2C[C@@](C)(CN2c2ccnc(C(=O)NCc3cccnc3)c2)C1` here?
**A.** -4%

**Q.** What about the Z score of the same compound?
**A.** 0.5

**Q.** Which “% Inhibition” value does the source give for `CCN1CC(C(=O)N2CCCC(C(C)(C)C)CC2)CC1=O` (stereo not given) here?
**A.** -8%

**Q.** What about the Z score of the same compound?
**A.** 1.01

**Q.** Which “% Inhibition” value does the source give for `COCCN(Cc1csc(COc2ccc(Cl)cc2)n1)C(=O)C1CCCC1` here?
**A.** -8%

**Q.** What about the Z score of the same compound?
**A.** 1.14

**Q.** How did the “% Inhibition” value turn out when `C[C@@H](C(=O)Nc1cccc2ccccc12)N1CCCCC1` was run?
**A.** 36%

**Q.** And the Z score?
**A.** -4.79

**Q.** What does the source list for `COc1ccc(F)cc1-c1cncc(CN2CCC(NC(C)=O)CC2)c1`?
**A.** % Inhibition: -11%; Z score: 1.19

**Q.** What does the source list for `Cc1nn(C)c(C)c1[C@H]1OCC[C@@H]1NS(=O)(=O)C1(C)CC1`?
**A.** % Inhibition: -9%; Z score: 1.24

**Q.** For `Cc1cnccc1CN(C)Cc1c(C)nn(C)c1Cl`, which “% Inhibition” value is on record?
**A.** -10%

**Q.** What about the Z score of the same compound?
**A.** 1.13

**Q.** For `FC(F)(F)c1nccc(N2CCCCCCC2)n1`, which “% Inhibition” value is on record?
**A.** -5%

**Q.** And the Z score?
**A.** 0.99

**Q.** Which results are given for `CC(=O)Nc1cccc2c1N(Cc1cccc3cccnc13)CCC2`?
**A.** % Inhibition: -10%; Z score: 0.93

**Q.** Which results are given for `CN(C)c1nccc(NCC2(C(N)=O)CCOCC2)n1`?
**A.** % Inhibition: 8%; Z score: -0.98

**Q.** For `Cc1ncc(CN2C(=O)NC3(CCCCCCC3)C2=O)s1`, which “% Inhibition” value is on record?
**A.** -4%

**Q.** What about the Z score of the same compound?
**A.** 0.64

**Q.** How did the “% Inhibition” value turn out when `O=C1N[C@]2(CCOC2)C(=O)N1Cc1ccc(F)c(Cl)c1` was run?
**A.** -18%

**Q.** What about the Z score of the same compound?
**A.** 2.46

**Q.** Which results are given for `c1cc(-c2nc(CN3CC4CCCC4C3)no2)cs1` (stereo not given)?
**A.** % Inhibition: 14%; Z score: -1.6

**Q.** Which results are given for `CCOC1(C)CCN(c2nccc(-c3ccnn3C)n2)CC1`?
**A.** % Inhibition: 8%; Z score: -1.67

**Q.** `COc1ccc(OC)c(-n2ccnc2[C@H]2CCOC(C)(C)C2)c1` was tested. Which “% Inhibition” value did it give?
**A.** -3%

**Q.** And the Z score?
**A.** 0.4

**Q.** Which results are given for `Cc1ccc(S(=O)(=O)N(CC(=O)N2CCc3sccc3[C@@H]2COc2ccc(F)cc2)CC(C)C)cc1`?
**A.** % Inhibition: -7%; Z score: 1.11

**Q.** With `N#Cc1c(N)nc2c(c1-c1ccc(C(N)=O)cc1)CCc1[nH]ccc1-2` as the compound, how does the “% Inhibition” value read?
**A.** -5%

**Q.** What about the Z score of the same compound?
**A.** 0.81

**Q.** Which “% Inhibition” value does the source give for `N#Cc1ncn(CCc2ccc3c(c2)CCO3)n1` here?
**A.** 13%

**Q.** And the Z score?
**A.** -1.57

**Q.** Which “% Inhibition” value does the source give for `COCCN1CCC[C@H](NC(=O)C(=O)Nc2ccccc2Cl)C1` here?
**A.** -4%

**Q.** What about the Z score of the same compound?
**A.** 0.48

**Q.** Which results are given for `CC(C)[C@H](C)N(Cc1cc(NC(=O)C2CCC2)ccc1N(C)C)C(=O)Nc1cccc(F)c1`?
**A.** % Inhibition: -12%; Z score: 1.02

**Q.** For `O=C(NCC1CCN(c2cnsn2)CC1)[C@H]1CCCO1`, which “% Inhibition” value is on record?
**A.** 7%

**Q.** And the Z score?
**A.** -1.01

**Q.** How did the “% Inhibition” value turn out when `CC(C)NC(=O)CCNc1nccc2nsnc12` was run?
**A.** -17%

**Q.** And the Z score?
**A.** 2.43

**Q.** `COCCn1cncc1Cn1ccc(-c2cccc(-c3nccs3)c2)n1` was tested. Which “% Inhibition” value did it give?
**A.** -9%

**Q.** What about the Z score of the same compound?
**A.** 1.25

**Q.** How did the “% Inhibition” value turn out when `Cc1ccc(OCn2c(=O)sc3ccccc32)cc1C` was run?
**A.** 27%

**Q.** And the Z score?
**A.** -3.54

**Q.** What does the source list for `O=c1[nH]c2ccccc2nc1-c1nc([C@H]2CCOC2)no1`?
**A.** % Inhibition: -22%; Z score: 2.51

**Q.** Which results are given for `CN(C)c1nc(-c2cccc(C(=O)NCc3ccc(CO)cc3)c2)nn1C`?
**A.** % Inhibition: -16%; Z score: 2.13

**Q.** How did the “% Inhibition” value turn out when `CCc1cc(N(C)Cc2cnn(C)c2)nc(N(C)C)n1` was run?
**A.** -13%

**Q.** And the Z score?
**A.** 1.43

**Q.** How did the “% Inhibition” value turn out when `Cc1nccc(-c2ccccc2)c1C(=O)N[C@@H]1C[C@H]2OCC[C@@H]12` was run?
**A.** -25%

**Q.** What about the Z score of the same compound?
**A.** 2.23

**Q.** `COCc1cc(NCc2noc(-c3cccc(F)c3)n2)n2ncnc2n1` was tested. Which “% Inhibition” value did it give?
**A.** -8%

**Q.** What about the Z score of the same compound?
**A.** 1.06

**Q.** `CCN(c1ccc(C(=O)Nc2cnc3[nH]nc(C)c3c2)cn1)C(C)C` was tested. Which “% Inhibition” value did it give?
**A.** 37%

**Q.** What about the Z score of the same compound?
**A.** -1.34

**Q.** Which results are given for `Cc1cccc(C2=CCN(C(=O)NCC[C@]3(O)CCOC3)CC2)c1C`?
**A.** % Inhibition: 10%; Z score: -1.35

**Q.** How did the “% Inhibition” value turn out when `CCCN1C[C@@H](CNCc2cc3c(O)cccc3s2)CC1=O` was run?
**A.** 4%

**Q.** And the Z score?
**A.** -0.55

**Q.** What does the source list for `CC(=O)Nc1ccc(Br)c(C)c1`?
**A.** % Inhibition: -7%; Z score: 0.97

**Q.** `CN1CC(=O)N[C@@H](c2ccccc2F)C1=O` was tested. Which “% Inhibition” value did it give?
**A.** 15%

**Q.** What about the Z score of the same compound?
**A.** -1.94

**Q.** With `O=C(c1ccco1)N1CCc2nc(N3CCCCC3)nc(N3CCCCC3)c2C1` as the compound, how does the “% Inhibition” value read?
**A.** -13%

**Q.** And the Z score?
**A.** 1.76

**Q.** What does the source list for `C[C@H]1CN(C)CCN1C(=O)c1cccc(-n2cnnn2)c1`?
**A.** % Inhibition: -3%; Z score: 0.45

**Q.** Which “% Inhibition” value does the source give for `CCc1nncn1CCNC(=O)NC(C)(C)CC(C)(C)C` here?
**A.** 35%

**Q.** And the Z score?
**A.** -3.98

**Q.** `Cn1ccc2cc(S(=O)(=O)N3CCC[C@H](C(=O)NCc4ccccc4F)C3)ccc21` was tested. Which “% Inhibition” value did it give?
**A.** -8%

**Q.** What about the Z score of the same compound?
**A.** 1.46

**Q.** Which results are given for `CCc1c(C(=O)NCc2cc(C)no2)nnn1-c1ccc(OC(C)C)cc1`?
**A.** % Inhibition: -9%; Z score: 1.42

**Q.** With `CS(=O)(=O)CCCOc1ccc(N2CCCC2)cc1` as the compound, how does the “% Inhibition” value read?
**A.** -10%

**Q.** And the Z score?
**A.** 1.48

**Q.** For `Cc1cc(N(C)C)ccc1NC(=O)C1CCN(c2ccc3nncn3n2)CC1`, which “% Inhibition” value is on record?
**A.** -5%

**Q.** What about the Z score of the same compound?
**A.** 0.93

**Q.** Which “% Inhibition” value does the source give for `COCC[C@@](C)(C#N)NS(=O)(=O)c1cc(OC)ccc1OC` here?
**A.** -19%

**Q.** What about the Z score of the same compound?
**A.** 2.19

**Q.** Which “% Inhibition” value does the source give for `COc1ccccc1-c1noc(Cn2cnc3ccccc3c2=O)n1` here?
**A.** -7%

**Q.** What about the Z score of the same compound?
**A.** 0.97

**Q.** For `COc1ccc([C@H](c2oc3ccccc3c2NC(=O)c2ccccc2)N2CCCCC2)cc1`, which “% Inhibition” value is on record?
**A.** -8%

**Q.** And the Z score?
**A.** 1.24

**Q.** How did the “% Inhibition” value turn out when `CC(C)n1ncc(C(=O)N2CCCc3nc(C#N)ccc32)c1Cl` was run?
**A.** -4%

**Q.** And the Z score?
**A.** 0.75

**Q.** What does the source list for `Cn1c(=O)c2ccccc2n(CC(=O)N2CCN(c3ccc(F)cc3)CC2)c1=O`?
**A.** % Inhibition: 3%; Z score: -0.47

**Q.** For `O=C(Nc1ncc(Cc2ccc(F)cc2)s1)[C@@H]1COc2ccccc2O1`, which “% Inhibition” value is on record?
**A.** -15%

**Q.** And the Z score?
**A.** 2.88

**Q.** What does the source list for `CCc1ccc(S(=O)(=O)Nc2cc(C)on2)s1`?
**A.** % Inhibition: 0%; Z score: 0.02

**Q.** Which results are given for `COCCN(Cc1ccc(C)s1)C(=O)c1cc(-c2ccc(C)s2)n[nH]1`?
**A.** % Inhibition: -3%; Z score: 0.58

**Q.** What does the source list for `CCc1nc2c(s1)[C@@H](N(C)Cc1nnc(C3CC3)s1)CCC2`?
**A.** % Inhibition: -6%; Z score: 0.65

**Q.** Which results are given for `CNC(=O)[C@@H]1CCCCN1Cc1ccnc(C(C)C)n1`?
**A.** % Inhibition: -7%; Z score: 1.42

**Q.** How did the “% Inhibition” value turn out when `CCC(C)C(NS(=O)(=O)c1c(C)noc1C)C(N)=O` (stereo not given) was run?
**A.** -10%

**Q.** What about the Z score of the same compound?
**A.** 1.21
